# Data as given in the supplement of paper PMC3334620.
# In all, about 33,000 sequences were measured (“E-score (-0.5 to 0.5)”: median about -0.043, highest 2% from about 0.37 on). This is one part of the list.
# Biological target: T1, Upc2 (UniProt Q12151)
# T1 sequence: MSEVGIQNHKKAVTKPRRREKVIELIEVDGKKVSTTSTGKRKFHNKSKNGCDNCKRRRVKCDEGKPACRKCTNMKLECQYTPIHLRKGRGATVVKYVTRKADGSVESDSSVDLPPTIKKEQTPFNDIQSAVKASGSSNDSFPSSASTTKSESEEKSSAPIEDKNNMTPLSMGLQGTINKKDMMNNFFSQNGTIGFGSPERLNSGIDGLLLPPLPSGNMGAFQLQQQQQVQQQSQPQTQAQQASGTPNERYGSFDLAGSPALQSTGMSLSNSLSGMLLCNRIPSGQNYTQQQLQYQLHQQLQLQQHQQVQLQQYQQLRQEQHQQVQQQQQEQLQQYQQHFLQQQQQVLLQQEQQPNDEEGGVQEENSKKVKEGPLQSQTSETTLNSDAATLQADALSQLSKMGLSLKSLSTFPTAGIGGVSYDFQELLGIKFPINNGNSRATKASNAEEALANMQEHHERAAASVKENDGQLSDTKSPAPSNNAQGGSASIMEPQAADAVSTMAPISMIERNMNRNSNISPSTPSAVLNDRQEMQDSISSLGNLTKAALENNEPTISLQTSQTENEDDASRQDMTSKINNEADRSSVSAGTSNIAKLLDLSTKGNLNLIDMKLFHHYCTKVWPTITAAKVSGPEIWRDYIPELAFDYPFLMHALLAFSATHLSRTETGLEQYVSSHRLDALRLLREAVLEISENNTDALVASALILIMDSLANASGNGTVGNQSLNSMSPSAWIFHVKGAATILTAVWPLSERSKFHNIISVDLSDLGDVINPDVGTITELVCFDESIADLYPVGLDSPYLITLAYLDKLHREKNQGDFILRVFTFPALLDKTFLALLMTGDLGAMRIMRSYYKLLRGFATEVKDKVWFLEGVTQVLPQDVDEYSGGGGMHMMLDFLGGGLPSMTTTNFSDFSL
# Test: PBM E-score (8-mer binding enrichment) (E-score (-0.5 to 0.5)); higher = stronger / more preferred TF binding; most listed sequences are background and not binding sites
# Details: protein concentration: 200 nM; construct: GST-full length
# Method in brief: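 E-scores (a modified Wilcoxon-Mann-Whitney statistic) were assigned by the Universal PBM Analysis Suite to every ungapped eight-base word pooled with its reverse complement. The input came from universal all-10-mer Agilent arrays made double-stranded by primer extension and probed with GST-tagged yeast transcription factors at about 100-200 nM. Fluorescent anti-GST detected bound protein, and masliner normalised the scans.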
row,Sequence,PBM E-score
1,AGCCGTTC,0.212
2,CGCAAGCG,0.115
3,GGTCGGAC,-0.0833
4,AGTGTAGA,-0.165
5,GACAGAGC,-0.259
6,AACTGGGA,-0.173
7,GCTACCCA,-0.249
8,AAAAAGGG,-0.178
9,AGGGAAAA,-0.113
10,AGAGGGTC,-0.227
11,CTGCATTC,0.0841
12,CAACACAC,-0.0473
13,AAGTCGTC,0.121
14,ACACAACG,0.151
15,AACTCGCC,0.0304
16,ACTAGACC,-0.198
17,ATCGGTGC,-0.154
18,AATCATTC,-0.057
19,ACTTACCG,0.122
20,CACCTGTA,-0.0954
21,GGAGGCAC,-0.177
22,ATACAAAG,0.0473
23,GCACACGA,0.2
24,CGAGGGCA,0.178
25,ATCGCTAA,0.192

row,Sequence,PBM E-score
1,ACGCATGG,-0.0496
2,GATATCGC,0.159
3,ACGTACGG,0.354
4,GAATAGAA,0.0261
5,AGACCGAA,0.0322
6,CTGCTAAG,-0.316
7,AAGCCGTA,0.297
8,GTGGGTCA,-0.327
9,AAGGCAGT,-0.121
10,AAGGCATA,-0.152
11,GCCGCTAA,-0.191
12,AGCTGTAC,0.113
13,ATTCATGG,-0.114
14,ACCTGCAA,-0.126
15,CAATTCTA,-0.0282
16,CGCCAAGA,-0.191
17,ATACATGA,-0.00058
18,CCCATGGA,-0.308
19,CATTGAAA,0.0183
20,GCACCACA,-0.157
21,TAACGAGA,0.391
22,AGCACCAG,-0.202
23,CCGCCTCC,-0.173
24,CGACCTTA,0.21
25,AAGTTCTA,-0.0405

row,Sequence,PBM E-score
1,AATAGGTA,0.0405
2,AAAACCAT,0.0109
3,AGATGTGC,0.0112
4,TTATTGAA,-0.0656
5,CGGTGGCA,-0.0903
6,ACACTGGG,-0.243
7,ATATCTTA,-0.0407
8,ACGCCAGG,-0.133
9,AACTTACT,-0.0916
10,GGAATGCC,-0.186
11,TCATCTCA,-0.119
12,CCGATGTC,-0.0348
13,CAGCTAAC,-0.245
14,CGCTTGTA,0.118
15,GAGTCACC,-0.222
16,ACCTAGGA,-0.0958
17,GCCGGCAA,-0.0326
18,AAAGGGAG,-0.166
19,CTATTGTA,-0.00999
20,ACGTCCAG,-0.12
21,AGAAGACT,-0.177
22,ATAATTTA,0.121
23,TACGTTAA,0.342
24,AGAATCTC,0.0559
25,CGTACCCA,0.376

row,Sequence,PBM E-score
1,GCTCATTA,-0.102
2,ATTACGGC,0.0941
3,GTTGGAAA,-0.103
4,CATTTGCG,0.0794
5,AGTGCGAA,-0.145
6,CTAGCCAA,-0.198
7,AATACTCT,-0.0687
8,ATCCCTCA,-0.209
9,AGGCATAT,0.0852
10,ATAGGAAC,0.068
11,CCGGCCCG,-0.101
12,GGTATACA,-0.0256
13,AAACAGAG,-0.0281
14,ATACCTTG,-0.125
15,CAGAGTTA,-0.2
16,CGACCGTA,0.373
17,ACGATTGA,0.27
18,CCACCCGA,0.0204
19,GGGTTCCA,-0.218
20,ACTGCAGG,-0.156
21,GAGCCCTC,0.022
22,GTGCTATA,0.128
23,CTTCAAGC,-0.16
24,CCGTCACC,-0.152
25,ACATCAGG,-0.0958

row,Sequence,PBM E-score
1,AGAGGGCT,-0.325
2,AACGTTCT,0.222
3,ATGCCATA,-0.001
4,ACGGAAGT,0.146
5,CGGATGTC,0.164
6,AGGATACT,-0.157
7,ACGCATTA,-0.00997
8,AGAATAGA,-0.17
9,ACCAGCAT,-0.171
10,ATTTAGGG,0.0094
11,GATTGCTA,0.0207
12,AGCCCTTG,-0.26
13,TAGATCGA,-0.0729
14,GGGAGAAC,-0.218
15,ATTGTTTG,-0.0476
16,TCAGTTCA,-0.0234
17,GTGTGAAC,0.174
18,AACCCTGT,-0.0902
19,AAGGTAAC,0.136
20,ACTTGCAA,0.13
21,TGGGCACA,-0.217
22,ATGGGCAA,0.0979
23,TCGACAGA,-0.0571
24,CGCGACCC,-0.0694
25,CAATTCTG,-0.268

row,Sequence,PBM E-score
1,TGCTAAAA,-0.0918
2,GCTGAATA,-0.0745
3,AATGGTCA,-0.0859
4,AAAAAAGC,-0.0973
5,CACTATCC,-0.0732
6,CCGATGGC,-0.0305
7,GATCGGCA,-0.0334
8,ATAACGCG,0.153
9,AACGCAAA,0.104
10,GCATTAAA,0.0155
11,CGGCGTAC,0.265
12,GATAGCGC,0.0413
13,AGATGGCC,-0.176
14,ACTACTCG,0.202
15,CCGAAGGC,-0.125
16,ACAAAAAT,0.0728
17,AACACCAT,0.0402
18,AGAAGTGA,-0.317
19,ATCTTAGC,-0.0808
20,CCACTGCC,-0.0251
21,CTCAAGAA,-0.174
22,GGATGAAA,-0.138
23,CATGGAAC,-0.201
24,CTTCTAGC,-0.178
25,AGCAGTTA,-0.0875

row,Sequence,PBM E-score
1,AATACCTC,-0.0568
2,CTTCTCTA,-0.285
3,AAGCCGCC,-0.317
4,ACTAAGGG,-0.0941
5,AGAGTACC,-0.189
6,ATGATCAC,0.044
7,AACATATT,-0.00989
8,GGTCATTA,-0.123
9,ACGCCGCT,0.118
10,CACCGTGA,-0.216
11,ACCCGCAG,-0.0153
12,AAACCTAC,-0.0282
13,CATAGTCC,-0.229
14,AGAACCAT,0.0254
15,GATCTGCA,-0.163
16,TAATTTAA,0.0941
17,ACGCAAGC,0.0194
18,TCTTCTAA,0.0621
19,CAGATGCG,-0.173
20,TTCGGCAA,0.153
21,GTTTCATA,0.0539
22,CGCAACGA,0.368
23,ATTTCAGA,-0.159
24,AACTTCGG,0.0166
25,CGTTCCAA,0.329

row,Sequence,PBM E-score
1,TAAGAAAA,0.109
2,GTTGAACA,-0.0299
3,GGTCCCCA,-0.24
4,AGCCCTCA,-0.0686
5,GCCCGTAC,0.366
6,CCACAAAC,0.185
7,CTCAAAAA,-0.123
8,AAACTAGG,-0.0517
9,ACGCTCAT,-0.021
10,CGCTACGC,0.136
11,AAAGGGAC,-0.183
12,ATTTCGGG,-0.185
13,GGTCTGCA,-0.156
14,CCTAGTGA,-0.174
15,ATTCAGAC,-0.00754
16,CTAAAGGC,0.00207
17,CGTTTTTA,0.251
18,GGGCATAC,0.0895
19,CTCTGTCA,-0.0724
20,ACTCGACA,0.0576
21,CTTTATAA,-0.025
22,ACTGGTAT,0.102
23,ACCGGGTC,-0.0132
24,CTACGATC,0.288
25,ACATTTAC,0.0638

row,Sequence,PBM E-score
1,CGGCGTAG,0.0555
2,ACAATTGC,-0.0645
3,GGGCGCCA,-0.19
4,CCACCCTA,0.0273
5,CCATTTCG,-0.00075
6,GACTCGGA,-0.00437
7,GGTCTGAC,-0.214
8,CTGTCCAA,-0.101
9,CTTACTTC,0.0271
10,CGAAAGTA,0.0261
11,CACCTGGA,-0.176
12,TCTTGTAA,0.108
13,CTCGGTTA,0.381
14,ACGGAAGG,-0.0344
15,CCGATTAG,0.149
16,AACATAAC,0.126
17,ATCCTGGG,-0.0504
18,CCATTTAG,0.0361
19,AGATGCTG,-0.196
